The densities may have been worked out from excess volumes.
Assay: xn = mol fraction of the nth substance listed
Conditions: 101 kPa

CC[NH+](C)CC.CS(=O)(=O)[O-] + O
mass density [kg/m3]
Conditions | x2 = 0.372 | x2 = 0.449 | x2 = 0.507 | x2 = 0.624 | x2 = 0.707
293.15 K | – | 1133.6 | 1133 | 1128.4 | 1122.2
313.15 K | 1122.9 | 1120.5 | – | 1115.4 | –
333.15 K | 1109.7 | – | 1106.7 | 1102.3 | 1096.4
353.15 K | 1096.7 | – | 1093.5 | 1089.5 | –

CC(=O)[O-].CC[n+]1ccn(C)c1 + O
mass density [kg/m3]
Conditions | x2 = 0.347 | x2 = 0.517 | x2 = 0.578 | x2 = 0.627 | x2 = 0.705
293.15 K | 1104.4 | 1107.2 | 1108.7 | 1108.5 | –
313.15 K | – | 1095.1 | 1097.3 | 1095.7 | 1094.9
333.15 K | 1080.7 | 1083 | 1085.1 | 1083.1 | 1081.5
353.15 K | 1068.5 | – | 1073.1 | 1070.9 | 1069.5

Reference: a compilation of properties of binary mixtures (doi:10.1021/je300132e)
